In a collection of fitness landscapes (doi:10.1016/j.celrep.2020.107928):
In all, about 81,000 sequences were measured (“one-hybrid fitness for binding NBS DNA”: median about -0.1, highest 2% from about 0.36 on). This is one part of the list.

B1: Caulobacter ParB omega fusion; a variant is named by its letters at X, in order, B8GW30 (parent)
chain: MESVVVGEPGMSEGRRGLGRGLSALLGEVDAAPAQAPGEQLGGSREAPIEILQRNPDQPRRTFREEDLEDLSNSIREKGVLQPILVRPSPDTAGEYQIVAGERAWRAAQRAGLKTVPIMVRELDDLAVLEIGIIENVQRADLNVLEEALSYKVLMEKFERTQENIAQTIGKSXSHVANXMRLLXLPDEVQSYLVSGELTAXHARAIAAAADPVALAKQIIEGGLSVRETEALARKAPNLSAGKSKGGRPPRVKDTDTQALESDLSSVLGLDVSIDHRGSTGTLTITYATLEQLDDLCNRLTRGI

Variants of: B1
Assay: one-hybrid fitness for binding NBS DNA (the Noc-binding site; scaled: cognate 1, non-cognate 0); higher = stronger binding
Settings: with NBS DNA site
In short: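 On M9-minus-histidine containing 0.1 mM IPTG and 5 mM 3-AT, E. coli USO cells with a HIS3 reporter, site 19 bp from the promoter, grew 48 hours at 37°C to select Caulobacter ParB libraries randomised at four specificity codons. Plasmids from before and after were Illumina-sequenced, with three replicate libraries pooled and variants under 10 reads left out. Fitness is the log change in variant-to-wild-type read ratio, rescaled against cognate and non-cognate.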

one-hybrid fitness for binding NBS DNA, 0.363:
KRLS

one-hybrid fitness for binding NBS DNA, 0.382:
RSKC

one-hybrid fitness for binding NBS DNA, 0.331:
QTDS

one-hybrid fitness for binding NBS DNA, 0.471:
RAGR

one-hybrid fitness for binding NBS DNA, 0.384:
QVAR

one-hybrid fitness for binding NBS DNA, 0.522:
RFKR

one-hybrid fitness for binding NBS DNA, 0.436:
KRWS

one-hybrid fitness for binding NBS DNA, 0.391:
QRAC

one-hybrid fitness for binding NBS DNA, 0.301:
QTTY

one-hybrid fitness for binding NBS DNA, 0.242:
RAFT

one-hybrid fitness for binding NBS DNA, 0.249:
QLDT
QIKM

one-hybrid fitness for binding NBS DNA, 0.209:
KKGT

one-hybrid fitness for binding NBS DNA, ≤ 0.2:
PQIK
LADV
AFRV
TIRG
SQKF
TDIS
KTFN
PTNT
EWKF
CYNR
CTYG
TAAW
WTLS
QLMK
YQHH
KAFG
RWYW
SQNF
ALDL
DFLA
HSTA
PNEY
GAQD
NGMG
VFPW
HMKV
NVRK
MVSS
NLPC
TKRY
MEAR
GAVA
FNVL
DTHW
RDVW
QWQG
VTHL
VDQP
PNAT
YARC
SLNF
GYPI
HEPR
SREW
IPLT
KTGN
KSNT
TCAV
VQDA
VNVN
VKSS
LQER
PLKM
KGCV
RVSM
RMWN
HCSG
RVLY
SEIR
VMLS
AQTF
LKQE
DVSD
YYWG
MFPC
SLID
YVDG
LSPR
GPTC
DVMK
MTDC
IQTS
YTHA
KMMS
PQVT
NTVV
QDLF
LVRR
CVVS
VLNE
HYAD
LLQI
HSRW
QNIG
HHLF
ARYW
NFHD
RSLD
GLRL
DILQ
KYAY
WENF
ALFI
RYAN
LMAS
CQAR
KRDN
HQTR
FAAY
VDVL
WATQ
HFWF
GINT
DVTN
YRNV
NTES
QVWI
IREL
TMYR
SIFG
FANR
CSSA
PVQA
KRDD
HTTV
TAQK
SNGW
CADS
YMPK
VDCR
PHCS
WNNK
CVFK
NCRL
DQTK
VPWT
KDES
IPRN
SWPN
PTYR
CAAK
KSVR
TLVS
LNRW
MVTA
GQTY
NCNN
HEIT
LMLG
ATIK
HQNC
QIHK
RTEP
GKCC
MTAP
HNRF
ITTG
PLFS
RLIF
DTTW
LECG
FQAY
NNSY
ALDC
CLHE
VAPN
YKDG
MTLS
QPMY
WRFG
SATE
ARYV
DCKC
CMSN
LLTK
RAQF
NLWG
EPLR
CDPL
MVWT
VKCG
FGNG
RYHW
RAER
SDRC
PNPM
IWGC
SNAC
RLTA
WRKA
PDPL
PRCM
AGMI
GMHT
ADTS
QFMR
RPLN
QQTQ
DTAG
RRCW
CRHF
GAGG
LFWG
QMSF
CYSF
HKKS
LDLE
TGHH
PYSM
MNCF
TQPA
MERT
DLVV
LAAN
STFP
RHNQ
RKPW
FEDV
TPGW
QGSQ
RAEG
PMCC
RDHR
FQSR
YTTR
AWNG
QQPC
LQVG
VPMT
PCGL
KTII
RCDA
TVYT
ARSV
SVLM
HFAL
QPEA
LPKP
HMPC
QVGC
VISR
PRVH
FKRS
FSGD
HHNQ
LEAF
EWDR
WDLY
RIMP
HGVY
SHTG
PFRP
SHPQ
LIAG
PMES
NREN
ERAV
AEHK
TAHA
MWNV
PTSV
CHYS
TPPK
VCTL
RLML
CGRS
PSQD
PWLG
GTNM
PVRQ
RFCR
MCPF
DELS
TINV
MPAW
FPHR
PQQS
RPPD
KMGR
SNHT
NCNQ
RGMA
GQSW
SSKM
SPPE
GHPE
LNRF
EFSC
HEEL
YRYE
DTQL
WPFG
EVSG
QSVN
ACES
PEYG
KEIR
VRSI
DINS
LSTL
CQPP
PDYW

one-hybrid fitness for binding NBS DNA, 0.597:
RKAR
